B1: TEV protease; numbered along this chain (parent)
chain: MGESLFKGPRDYNPISSSICHLTNESDGHTTSLYGIGFGPFIITNKHLFRRNNGTLVVQSLHGVFKVKDTTTLQQHLVDGRDMIIIRMPKDFPPFPQKLKFREPQREERICLVTTNFQTKSMSSMVSDTSCTFPSGDGIFWKHWIQTKDGQCGSPLVSTRDGFIVGIHSASNFTNTNNYFTSVPKNFMELLTNQEAQQWVSGWRLNADSVLWGGHKVFMVKPEEPFQPVKEATQL

These results are taken from the supplement of paper PMC12217912.

The list shows a part of the results. The full chains were built here from the parent and the listed change. Values near 0.05 are background.
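Further: Bxb1 expression induced with 0.2% (w/v) L-rhamnose at OD600 near 0.5, cultures sampled hourly, flipped fraction per protease–substrate barcode pair counted by paired-end Illumina sequencing.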

Variants of B1 are the subject of this assay. The assay can be described thus: raw area under fraction-flipped curve 0-4 h after induction (AUC4h, not background-subtracted), DNA-recorder readout of cleavage of the substrate (dimensionless); higher = more cleavage of the substrate by the protease variant. The settings on record: temperature: 34 °C; time window: 0-4 h after rhamnose induction.
With MGESLFKGPRDYNPISSSICHLTNESDGHTTSLYGIGFGPFIITNKHLFRRNNGTLVVQSLHGVFKVKDTTTLQQHLVDGRDMIIIRMPKDFPPFQQKLKFREPQREERICLVTTNFQTKSMSSMVSDTSCTFPSGDGIFWKHWIQTKDGQCGSPLVSTRDGFIVGIHSASNFTNTNNYFTSVPKNFMELLTNQEAQQWVSGWRLNADSVLWGGHKVFMVKPEEPFQPVKEATQL [P96Q], the “area with substrate ENEYFQS” value turned out to be 0.0641, the “area with substrate ENGYFQS” value was determined as 0.0642, the “area with substrate ENIYFQS” value is 0.123 and the “area with substrate ENNYFQS” value turned out to be 0.043. For the same variant, the “area with substrate ENQYFQS” value came out at 0.069, the “area with substrate ENRYFQS” value was 0.0607, the “area with substrate ENSYFQS” value was 0.0554 and the “area with substrate ENTYFQS” value was 0.0787. The “area with substrate ENWYFQS” value stood at 0.0527 and the “area with substrate ENYYFQS” value amounted to 0.0387.
Turning to MGESLFKGPRDYNPISSSICHLTNESDGHTTSLYGIGFGPFIITNKHLFRRNNGTLVVQSLHGVFKVKDTTTLQQHLVDGRDMIIIRMPKDFPPFPQKLKFREPQREERICLVTTNFQTKSMSSMVSDTSCTFPSGDGIFWKHWIQTKDGQCGSPLVSTRDGFIVGIHSASNFTNTNNYFTSVPKNFMELLTNQEAQQWVSGWRLNADSVLWGGHKVFMVKPEIPFQPVKEATQL [E224I], the “area with substrate ENDYFQS” value was 0.0595, the “area with substrate ENFYFQS” value turned out to be 0.0833, the “area with substrate ENGYFQS” value turned out to be 0.0685 and the “area with substrate ENHYFQS” value amounted to 0.0602. Further, the “area with substrate ENNYFQS” value came out at 0.0898, the “area with substrate ENQYFQS” value was determined as 0.0594, the “area with substrate ENRYFQS” value came to 0.0479 and the “area with substrate ENSYFQS” value was 0.0847. Further, the “area with substrate ENTYFQS” value amounted to 0.0617 and the “area with substrate ENYYFQS” value is 0.0371.
MGESLFKGPRDYNPISSSICHLTNESDGHTTSLYGIGFGPFIITNKHLFRRNNGTLVVQSLHGVFKVKDTTTLQQHLVDGRDMIIIRMPKDFPPFPQKLKFREPQREERICLVTTNFQTKSMSSMVSDTSCTFPSGDGIFWKHWIQTKDGQHGSPLVSTRDGFIVGIHSASNFTNTNNYFTSVPKNFMELLTNQEAQQWVSGWRLNADSVLWGGHKVFMVKPEEPFQPVKEATQL [C152H]: the “area with substrate ENEYFQS” value worked out at 0.0618, the “area with substrate ENFYFQS” value was determined as 0.0596, the “area with substrate ENQYFQS” value turned out to be 0.0574 and the “area with substrate ENSYFQS” value came to 0.0652. Also, the “area with substrate ENVYFQS” value stood at 0.0526 and the “area with substrate ENYYFQS” value was 0.0485.
Take MGESLFKGPRDYNPISSSICHLTNESDGHTTSLYGIGFGPFIITNKHLFRRNNGTLVVQSLHGVFKVKDTTTLQQHLVDGRDMIIIRMPKDFPPFPQKLKFREPQREERICLVTTNFQTKSMSSMVSDTSCTFPSGDGIFWKHWIQTKDGQCGSPLVSTRDGFIVGIHSASNFTNTNNYFTSVYKNFMELLTNQEAQQWVSGWRLNADSVLWGGHKVFMVKPEEPFQPVKEATQL [P184Y]: the “area with substrate ENDYFQS” value was found to be 0.0522, the “area with substrate ENEYFQS” value came to 0.06, the “area with substrate ENHYFQS” value turned out to be 0.0603 and the “area with substrate ENMYFQS” value is 0.0742. Further, the “area with substrate ENQYFQS” value came out at 0.0505, the “area with substrate ENRYFQS” value turned out to be 0.0612, the “area with substrate ENSYFQS” value turned out to be 0.0646 and the “area with substrate ENTYFQS” value was determined as 0.0272.
MGESLFKGPRDYNPISSSICHLTNESDGHTTSLYGIGFGPFIITNKHLFRRNNGTLVVQSLHGVFKVKDTTTLQQHLVDGRDMIIIRMPKDFPPFPQKLKFREPQREERICLVTTNFQTKSMSSMVSDTSCTFPSGDGIFWKHWIQTKDGQCGSPLVSTRDGFIVGIHSASNFTNTNNYFTSVPKNFMELLTNQEAQQWVSGWRLNAHSVLWGGHKVFMVKPEEPFQPVKEATQL [D208H]: the “area with substrate ENDYFQS” value was determined as 0.0526, the “area with substrate ENHYFQS” value came to 0.056, the “area with substrate ENKYFQS” value was determined as 0.0872 and the “area with substrate ENMYFQS” value was 0.0774. Moreover, the “area with substrate ENNYFQS” value was found to be 0.0405, the “area with substrate ENRYFQS” value came to 0.0721, the “area with substrate ENTYFQS” value came out at 0.0773 and the “area with substrate ENYYFQS” value came to 0.0606.
Regarding MGESLFKGPRDYNPISSSICHLTNESDGHTTSLYGIGFGPFIITNKHLFRRNNGTLVVQSLHGVFKVKDTTTLQQHLVDGRDMIIIRMPKDFPPFPQKLKFREPQREERICLVTTNFQTKSMSSMVSDTSCTFPSGPGIFWKHWIQTKDGQCGSPLVSTRDGFIVGIHSASNFTNTNNYFTSVPKNFMELLTNQEAQQWVSGWRLNADSVLWGGHKVFMVKPEEPFQPVKEATQL [D137P], the “area with substrate ENEYFQS” value was 0.0625, the “area with substrate ENGYFQS” value was determined as 0.0611, the “area with substrate ENHYFQS” value amounted to 0.0532 and the “area with substrate ENMYFQS” value was found to be 0.108. Further, the “area with substrate ENRYFQS” value stood at 0.0677 and the “area with substrate ENVYFQS” value came out at 0.0846.
In the case of MGESLFKGPRDYNPISSSICHLTNESDGHTTSLYGIGFGPFIITNKHLFRRNNGTLVVQSLHGVFKVKDTTTLQQHLVDGRDMIIIRMPKDFPPFPQKLKFREPQREERICLVTTNFQTKSMSSMVSDTSCTFPSGDGIFWKHWIQTKDGQCGSPLVSTRDGFIVGIHSASNFTNTNNYFTSVPKAFMELLTNQEAQQWVSGWRLNADSVLWGGHKVFMVKPEEPFQPVKEATQL [N186A], the “area with substrate ENFYFQS” value was 0.0905 and the “area with substrate ENPYFQS” value stood at 0.0478.
With MGESLFKGPRDYNPISSSICHLTNESDGHTTSLYGIGFGPFIITNKHLFRRNNGTLVVQSLHGVFKVKDTTTLQQHLVDGRDMIIIRMPKDFPPFPQKLKFREPQREERICLVTTNFQTKSMSSMVSDTSCTFPSGDGIFWKHWIQTKDGQCGSPLVSTRDGFIVGIHSASNFTNTNNYFTSVPKNFMELLTNQYAQQWVSGWRLNADSVLWGGHKVFMVKPEEPFQPVKEATQL [E195Y], the “area with substrate ENEYFQS” value came to 0.07, the “area with substrate ENRYFQS” value stood at 0.0576, the “area with substrate ENSYFQS” value was 0.066 and the “area with substrate ENTYFQS” value amounted to 0.0648.
In the case of MGESLFKGPRDYNPISSSICHLTNESDGHTTSLYGIGFGPFIITNKHLFRRNNGTLVVQSLHGVFKVKDTTTLQQHLVDGRDMIIIRMPKDFPPFPQKLKFREPQREERICLVTTNFQTKSMSSMVSDTSCTFPSGDGIFWKHWIQTKDGQCGSPLVSTRDGFIVGIHSASNFTNTNNYFTSVPKNFMKLLTNQEAQQWVSGWRLNADSVLWGGHKVFMVKPEEPFQPVKEATQL [E189K], the “area with substrate ENEYFQS” value came to 0.0662, the “area with substrate ENIYFQS” value amounted to 0.106, the “area with substrate ENKYFQS” value stood at 0.0579 and the “area with substrate ENQYFQS” value was found to be 0.0656. The “area with substrate ENSYFQS” value is 0.0639 and the “area with substrate ENTYFQS” value worked out at 0.0621.
Consider MGESLFKGPRDYNPISSSICHLTNESDGHTTSLYGIGFGPFIITNKHLFRRNNGTLVVQSLHGVFKVKDTTTLQQHLVDGRDMIIIRMPKDFPPFPQKLKFREPQREERICLVTTNFQTKSMSSMVSDTSCTFPSGDGIFWKHWIQTKDGQCGSPLVSTRDGFIVGIHSASNFTNTNNYFTSVPKNFMELLTNQEAQQWVSGWRLNSDSVLWGGHKVFMVKPEEPFQPVKEATQL [A207S], for which the “area with substrate ENDYFQS” value is 0.0689, the “area with substrate ENEYFQS” value is 0.0544, the “area with substrate ENFYFQS” value came to 0.0811 and the “area with substrate ENGYFQS” value was determined as 0.0582. In addition, the “area with substrate ENHYFQS” value came to 0.0584, the “area with substrate ENIYFQS” value stood at 0.111, the “area with substrate ENKYFQS” value is 0.0541 and the “area with substrate ENMYFQS” value is 0.081. Also, the “area with substrate ENNYFQS” value is 0.0681, the “area with substrate ENQYFQS” value came to 0.0675, the “area with substrate ENRYFQS” value stood at 0.0625 and the “area with substrate ENSYFQS” value came out at 0.0594. The “area with substrate ENTYFQS” value came to 0.055, the “area with substrate ENVYFQS” value is 0.0703, the “area with substrate ENWYFQS” value was 0.0396 and the “area with substrate ENYYFQS” value turned out to be 0.0588.
